# Data published in the supplement of paper PMC3334620.
# Over roughly 33,000 sequences, “E-score (-0.5 to 0.5)” has its median near -0.035; the highest 2% begin near 0.35. The list shows a part of the results.
# Molecular target: T1, Pdr3 (UniProt P33200)
# T1 sequence: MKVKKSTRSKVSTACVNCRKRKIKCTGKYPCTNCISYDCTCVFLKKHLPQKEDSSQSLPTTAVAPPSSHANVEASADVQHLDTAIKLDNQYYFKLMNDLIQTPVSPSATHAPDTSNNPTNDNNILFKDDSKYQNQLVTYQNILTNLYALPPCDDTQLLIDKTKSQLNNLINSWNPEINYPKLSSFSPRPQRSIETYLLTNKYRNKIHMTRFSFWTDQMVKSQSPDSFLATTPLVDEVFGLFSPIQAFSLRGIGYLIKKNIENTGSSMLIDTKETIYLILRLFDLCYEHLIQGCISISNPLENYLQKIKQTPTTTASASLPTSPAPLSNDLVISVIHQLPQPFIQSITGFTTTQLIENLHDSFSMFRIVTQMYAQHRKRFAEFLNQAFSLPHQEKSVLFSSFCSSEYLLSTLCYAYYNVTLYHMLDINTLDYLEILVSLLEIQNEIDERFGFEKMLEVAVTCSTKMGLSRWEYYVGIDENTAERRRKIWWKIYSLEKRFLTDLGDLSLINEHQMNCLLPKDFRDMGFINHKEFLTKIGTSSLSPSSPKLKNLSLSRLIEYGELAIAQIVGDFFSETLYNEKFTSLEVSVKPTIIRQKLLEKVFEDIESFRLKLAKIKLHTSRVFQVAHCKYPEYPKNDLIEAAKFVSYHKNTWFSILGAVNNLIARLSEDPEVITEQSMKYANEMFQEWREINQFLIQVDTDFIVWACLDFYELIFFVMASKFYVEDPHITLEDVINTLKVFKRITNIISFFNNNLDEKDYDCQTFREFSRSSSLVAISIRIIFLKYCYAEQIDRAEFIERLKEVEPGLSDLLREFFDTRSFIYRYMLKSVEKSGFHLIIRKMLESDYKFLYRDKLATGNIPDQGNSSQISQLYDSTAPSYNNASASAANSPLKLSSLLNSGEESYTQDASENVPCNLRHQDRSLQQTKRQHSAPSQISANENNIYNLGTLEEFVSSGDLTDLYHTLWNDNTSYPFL
# Test: PBM E-score (8-mer binding enrichment) (E-score (-0.5 to 0.5)); higher = stronger / more preferred TF binding; most listed sequences are background and not binding sites
# Conditions: protein concentration: 200 nM; construct: GST-full length
# Experimental: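 Universal 'all 10-mer' protein binding microarrays (Agilent AMADID 015681) probed with GST-tagged S. cerevisiae TFs (full-length or DBD) made by in vitro transcription/translation (PURExpress), about 100-200 nM. Bound TF was detected with fluorescent anti-GST. Each ungapped 8-mer (which stands for itself and its reverse complement) is scored by the PBM enrichment score (E-score), a modified Wilcoxon-Mann-Whitney statistic from -0.5 to +0.5, computed with the Universal PBM Analysis Suite. Scale: above 0.35 generally sequence-specific binding.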
row,Sequence,PBM E-score
1,ACGGCAGG,0.0395
2,ATTTACTA,0.0272
3,GTATATGA,0.0321
4,GGCCTACA,-0.0679
5,CCGTACAG,0.0992
6,AAAATCGC,0.0302
7,CGGGGAAC,0.258
8,CCAAACTC,0.0235
9,AACGCTCG,0.0169
10,GATGGGGC,0.0419
11,CGACCTAC,-0.14
12,ACCCGCGC,0.353
13,ATACCGTA,0.0516
14,GTCGGGTA,0.19
15,GGGTCTAA,-0.0709
16,CTTAGATA,-0.0803
17,ATGGCCAT,0.163
18,AATCGCCT,0.0918
19,CTGTTCGC,0.05
20,GTTACTAA,-0.243
21,GCCCACCC,0.119
22,CTGGGGTA,-0.143
23,CACTTTCC,0.212
24,ACCCGAAG,0.147
25,GCGTTAGC,-0.213

row,Sequence,PBM E-score
1,AACAATCA,-0.0618
2,ATGAATTC,0.0645
3,AAACCCAA,0.0475
4,CAATCACA,-0.237
5,ATCATAGG,-0.00823
6,TGTGTAAA,0.0265
7,ACCGTAGT,0.0824
8,GACGTTAA,-0.0348
9,TCAACTAA,-0.118
10,ACGATAGG,-0.1
11,AGAGTAAC,0.0157
12,GTCTGGCA,-5e-05
13,AACTTAGG,-0.188
14,GAGACGAC,0.127
15,CAAATTAC,-0.0508
16,CTTAGGAA,-0.258
17,TGTTCAAA,-0.0744
18,AGGTGTCA,0.0471
19,GGGTGCGA,-0.0118
20,CCATACAA,-0.123
21,AAAAATCA,-0.0267
22,GTTCAGGA,-0.0158
23,CCGAAAAA,0.3
24,GATGGTAA,-0.127
25,GACAGAGA,-0.153

row,Sequence,PBM E-score
1,CGACGTCG,-0.103
2,GATTATCA,0.0698
3,AGTTGGCG,0.125
4,CGAAGTCG,-0.0357
5,ACCATAGG,-0.229
6,GAGTTAGA,-0.12
7,AATAAAAA,0.063
8,CGCGTTTA,0.037
9,AAGGAGAC,-0.222
10,AGGTAGCA,-0.188
11,GGTAATAA,0.165
12,AGAGTCAA,-0.152
13,AGCAATAT,-0.0613
14,CTAATTAC,-0.0343
15,CGAAGCCG,0.266
16,ACATGCTA,-0.0976
17,CATGGGAA,0.12
18,ATGTACGG,0.0336
19,CTTGTGGA,-0.163
20,AGTCGTAT,-0.268
21,CGACCCTA,-0.0789
22,CTTAAATA,-0.126
23,GGTGACCA,-0.11
24,GGCGGACA,0.185
25,ACTCCCCG,0.306

row,Sequence,PBM E-score
1,AATTGCCG,0.122
2,GCCAGTTA,-0.00612
3,ACCCATTA,0.0069
4,GCGTATCC,0.00149
5,CAAGTGTG,-0.113
6,AAGGGGCT,-0.104
7,GTGCTTGA,-0.16
8,CGAACACG,0.0492
9,CCCACGCG,0.0313
10,GGCTTGGA,-0.266
11,CCGATGCG,0.203
12,CGGTACGA,0.0414
13,CTTTACCC,-0.0933
14,CATATTCA,-0.0969
15,AGGGTGAA,-0.176
16,CGGCATGA,0.247
17,CACTGATC,-0.176
18,CGCCCTTA,-0.0281
19,CCTGAAAC,0.0656
20,CTCTAGGC,-0.148
21,CCGGACGG,0.396
22,GGAGACCA,0.0972
23,CTGCGTGC,-0.0812
24,CCCTGCTC,-0.0867
25,AAACAACT,0.0279

row,Sequence,PBM E-score
1,CGGTCAGC,0.0706
2,AAATTAGC,-0.0765
3,CACCTCCC,-0.0984
4,GCCGAGCA,0.0374
5,GTATATCA,-0.0427
6,AAAGAGGA,-0.131
7,AGAAGGGA,-0.323
8,GGAGGTTA,-0.0104
9,ACGGCCGC,0.313
10,GGAAGGGA,0.201
11,CGAGTACC,0.0734
12,AGGCGCAC,0.147
13,CACTTCAA,0.203
14,AATGATAC,0.0214
15,CATTTGCC,-0.13
16,ATACTGTA,0.0259
17,GACGTCTA,-0.129
18,ACAACCGG,0.234
19,TTCTGAAA,-0.00916
20,CAAAAGAC,-0.205
21,ACTATATG,-0.113
22,TTAGTGAA,-0.063
23,AGAATCGG,0.0495
24,CAAGGCCC,0.0552
25,GAGGATGC,0.00976

row,Sequence,PBM E-score
1,GATGCCCA,0.012
2,TACCAGGA,0.0721
3,AACCTCAG,-0.0334
4,AAGCAAGG,-0.0242
5,ATGTAGCA,-0.039
6,TAAAGTCA,-0.101
7,GGAAGCAC,0.143
8,AGGGGAAT,0.187
9,CGACTCAC,-0.0132
10,CATATCCC,0.107
11,CTAGAGAA,-0.0805
12,CTTAGAGA,-0.109
13,CGCAAAAG,-0.058
14,TATTGCAA,0.286
15,CGTACCTA,-0.136
16,CTTCATTC,0.00675
17,ATATCTGG,0.0589
18,ACTACGAC,0.0132
19,CTCCGCAG,0.206
20,ATACGTGG,-0.0672
21,CGTAGAAG,-0.079
22,GGTTTGAC,0.0587
23,TAAATCCA,-0.00223
24,CACCCTAC,-0.236
25,CTGGCGCC,0.175

row,Sequence,PBM E-score
1,CGTGATCC,0.145
2,CTGAGCTC,0.0349
3,CGGGGAGA,0.28
4,CCCTAAAG,-0.255
5,GCATATAA,-0.159
6,CTCGCTCA,0.104
7,CTGCCTTA,-0.209
8,ATCGGATA,0.325
9,CACATTGC,-0.0131
10,CGAAGGCC,-0.0056
11,AGAGCGGG,0.134
12,AGGGCCCA,0.11
13,ACCCATCA,-0.129
14,AACTGGCT,-0.25
15,GTCCCCTA,-0.143
16,CATACGAA,-0.00783
17,CTTCCCGC,0.29
18,AGTGAACT,-0.0291
19,AATAAATC,-0.132
20,CCTAATCC,-0.068
21,AAAAGGCG,-0.0675
22,GATAAGGC,0.0141
